This is one part of the list. At the low end of the ranking, values are background and their order means little.

Drawing on article PMC6212790, this text covers binding signal for 172 sequences.

The target of the test is T1, GST-Rok (full length) (UniProt O34857).
T1 sequence: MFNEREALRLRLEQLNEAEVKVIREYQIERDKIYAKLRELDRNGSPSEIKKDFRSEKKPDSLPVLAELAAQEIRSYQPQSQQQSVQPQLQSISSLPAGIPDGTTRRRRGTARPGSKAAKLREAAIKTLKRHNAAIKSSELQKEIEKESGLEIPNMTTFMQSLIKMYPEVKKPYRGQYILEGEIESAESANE
Description: protein binding microarray.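 Note: rank score from −0.5 (least bound) to 0.5 (best bound).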 The settings on record: Rok is a gene silencer of Bacillus subtilis; high values mean tight binding; most listed sequences are background and not binding sites; double strand, one strand shown.
Sequence GAGTCAAA showed a binding signal of 0.0563 E-score.

Regarding GGTAGCTA, the binding signal turned out to be 0.341 E-score.

As for ATATCCCC, the binding signal was -0.13 E-score.

Regarding ATTGGGAC, the binding signal is -0.13 E-score.

ACAGACAA returned a binding signal of 0.126 E-score.

In turn, CACCTTTC returned a binding signal of -0.0214 E-score.

Consider GGAAATCA, for which the binding signal was 0.104 E-score.

On to ATGGTCGC, for which the binding signal was -0.0576 E-score.

Take AATGCATT: the binding signal is 0.216 E-score.

CGTAAGTA: the binding signal amounted to 0.192 E-score.

The sequence CCAACCGC had a binding signal of -0.238 E-score.

CTGATCTA: the binding signal came out at 0.118 E-score.

CGTTAGCC returned a binding signal of -0.117 E-score.

In turn, ACTTGCAC displayed a binding signal of 0.141 E-score.

As for CGCAGTAA, the binding signal is -0.0838 E-score.

In the case of ACTGCTCG, the binding signal is -0.1 E-score.

In the case of GCCCTAAC, the binding signal is -0.212 E-score.

In the case of CCCTTCAC, the binding signal was -0.274 E-score.

In the case of ATGTTATG, the binding signal was determined as 0.209 E-score.

Take ATGGGAAT: the binding signal was found to be 0.146 E-score.

CCACAGCA had a binding signal of 0.0254 E-score.

In the case of CGATGCTC, the binding signal was -0.206 E-score.

In turn, AAAGTTGA gave a binding signal of -0.0334 E-score.

Regarding CGGCGGCA, the binding signal was -0.198 E-score.

AACTGCGG returned a binding signal of -0.104 E-score.

With CGTAGATA, the binding signal stood at 0.258 E-score.

In turn, AAACGGCC had a binding signal of -0.248 E-score.

CGAAAACA registered a binding signal of 0.252 E-score.

For CATCCACC, the binding signal was -0.141 E-score.

GCATCGTA displayed a binding signal of 0.0441 E-score.

For the sequence CTCTCCGC, the binding signal was -0.221 E-score.

Turning to ACGATCCG, the binding signal was found to be 0.218 E-score.

GCCGCTGA came in with a binding signal of -0.326 E-score.

In turn, CCATATGA yielded a binding signal of 0.0423 E-score.

The sequence CAATTACG returned a binding signal of 0.221 E-score.

The sequence AATTATCA came in with a binding signal of 0.251 E-score.

TCGACACA: the binding signal is -0.0148 E-score.

Consider CTGCACAC, for which the binding signal was -0.074 E-score.

AACCGTAG: the binding signal was 0.0498 E-score.

On to ATCGTCCC, for which the binding signal is -0.273 E-score.

CCTGCAGA had a binding signal of -0.0423 E-score.

Sequence CGACAAAC came in with a binding signal of -0.223 E-score.

As for AGCTGTGG, the binding signal was -0.327 E-score.

CCCCAGGG: the binding signal is -0.365 E-score.

Regarding AACACGTC, the binding signal was -0.0845 E-score.

CTTCTTAC: the binding signal was determined as 0.13 E-score.

As for CATGATTA, the binding signal was determined as 0.101 E-score.

The sequence GCACGTCA registered a binding signal of -0.204 E-score.

For the sequence TCAGATAA, the binding signal was determined as 0.247 E-score.

CACAGGTC showed a binding signal of -0.178 E-score.

As for GATGGTAA, the binding signal is 0.279 E-score.

As to TGGGACAA, the binding signal is -0.0148 E-score.

In turn, AGTGGGAA registered a binding signal of -0.23 E-score.

The sequence AGTCATTA came in with a binding signal of 0.0538 E-score.

CAGATCAA gave a binding signal of -0.0576 E-score.

AGTCTAAT yielded a binding signal of -0.0914 E-score.

On to AGACTGCG, for which the binding signal is -0.0525 E-score.

Turning to GTAGATAA, the binding signal turned out to be 0.407 E-score.

On to CTCAGCAG, for which the binding signal was -0.0802 E-score.

CGAGTATA gave a binding signal of 0.226 E-score.

CGACGCCG returned a binding signal of -0.26 E-score.

Sequence GATGTGGC yielded a binding signal of -0.00287 E-score.

With ATTCCGAA, the binding signal was found to be 0.17 E-score.

CATATGGC yielded a binding signal of -0.0788 E-score.

CGAAAGAA gave a binding signal of -0.184 E-score.

The sequence CAAGTTAC returned a binding signal of 0.122 E-score.

For the sequence ACCCAACA, the binding signal was -0.083 E-score.

TCGCCCGA displayed a binding signal of -0.296 E-score.

AGAGTTAT had a binding signal of 0.147 E-score.

AAGAACGG showed a binding signal of -0.0347 E-score.

The sequence AAGATGGC displayed a binding signal of -0.0108 E-score.

In turn, AACCTGAA came in with a binding signal of -0.0441 E-score.

Turning to GCCTACCA, the binding signal came out at 0.00758 E-score.

Sequence GGCGGACC yielded a binding signal of -0.451 E-score.

Sequence CATTCTAA registered a binding signal of 0.0993 E-score.

As to ACCCAATG, the binding signal was -0.0502 E-score.

Consider AGTAGAAT, for which the binding signal was 0.42 E-score.

AGATAGTC yielded a binding signal of 0.0258 E-score.

The sequence GGACCGTA had a binding signal of 0.0306 E-score.

As to TCCCCCAA, the binding signal was -0.317 E-score.

On to ACAAAAAT, for which the binding signal came to 0.0387 E-score.

In turn, AGGCAGCA came in with a binding signal of -0.152 E-score.

With AAGACTCG, the binding signal is -0.158 E-score.

For the sequence AAGTTTAT, the binding signal was found to be 0.0875 E-score.

In the case of AACGGCTG, the binding signal is 0.0377 E-score.

As to ACTGTAAC, the binding signal was 0.201 E-score.

Take CTGTGGAA: the binding signal was -0.0428 E-score.

The sequence CCAGGGAC yielded a binding signal of -0.258 E-score.

For the sequence AACTTTGA, the binding signal is -0.0517 E-score.

Regarding CCGATAAG, the binding signal is -0.0743 E-score.

GCTAAGAA yielded a binding signal of 0.112 E-score.

With ATATGGAT, the binding signal worked out at 0.231 E-score.

Consider CAGAATGG, for which the binding signal is -0.146 E-score.

Sequence CATAAGTA came in with a binding signal of 0.269 E-score.

AACTTTTA displayed a binding signal of 0.243 E-score.

As to ATTCTGCG, the binding signal worked out at 0.047 E-score.

For TACAGCTA, the binding signal is 0.179 E-score.

Turning to AACTGTCA, the binding signal came out at 0.139 E-score.

As for AGCTATGG, the binding signal amounted to 0.129 E-score.

Turning to CCGTCGTC, the binding signal is -0.197 E-score.

In turn, AAGTGTCG yielded a binding signal of 0.0801 E-score.

CGACGTAG registered a binding signal of -0.0659 E-score.

In turn, AGAATCCG registered a binding signal of 0.179 E-score.

Sequence AGGTTAAT returned a binding signal of 0.137 E-score.

GAAGTGCC gave a binding signal of -0.189 E-score.

Sequence CCCCATCC came in with a binding signal of -0.38 E-score.

In turn, ACGATTGA had a binding signal of 0.182 E-score.

Consider CCGTTCTA, for which the binding signal came to 0.0676 E-score.

GAGCAAGC had a binding signal of -0.0562 E-score.

In the case of ATATGTGG, the binding signal was determined as 0.118 E-score.

Consider TCCCTGCA, for which the binding signal was -0.143 E-score.

With AATTGACG, the binding signal was found to be 0.213 E-score.

CGTCAATC showed a binding signal of -0.119 E-score.

Turning to GGCATCCA, the binding signal was -0.322 E-score.

In the case of CGGCCAAC, the binding signal is -0.111 E-score.

In turn, CCACGTGA gave a binding signal of -0.105 E-score.

GTACGACA gave a binding signal of 0.0676 E-score.

Turning to AAGCAGCA, the binding signal was -0.0118 E-score.

On to CCTAGATC, for which the binding signal stood at 0.174 E-score.

As for AAGGCGGG, the binding signal is -0.288 E-score.

GCGTGTAC returned a binding signal of -0.0182 E-score.

With CAATCTTC, the binding signal was 0.14 E-score.

The sequence GTGGACAA displayed a binding signal of -0.11 E-score.

In turn, CCCTGAAG registered a binding signal of -0.183 E-score.

For the sequence CCGACACG, the binding signal is -0.36 E-score.

GAGTGGGA showed a binding signal of -0.284 E-score.

AAGAAACG had a binding signal of 0.0658 E-score.

In turn, ACAACATG had a binding signal of 0.0426 E-score.

For ACATGGGC, the binding signal is 0.0493 E-score.

Regarding CATTTGTA, the binding signal is 0.3 E-score.

Turning to AAAGGCCA, the binding signal was -0.282 E-score.

Regarding GTTAGAGA, the binding signal came out at 0.000885 E-score.

In turn, CGGGCGCA yielded a binding signal of -0.236 E-score.

The sequence CGAAACCA came in with a binding signal of -0.108 E-score.

For the sequence CCTTACGC, the binding signal was -0.189 E-score.

As to AAAGCCGT, the binding signal was -0.122 E-score.

GGCGTGTA: the binding signal is -0.0602 E-score.

The sequence CGCTGAAG came in with a binding signal of -0.0962 E-score.

The sequence AACCCTGT yielded a binding signal of -0.0674 E-score.

Turning to ATCGGAAC, the binding signal was -0.0205 E-score.

In turn, ACACGGCA came in with a binding signal of 0.0706 E-score.

ATGTTCCC had a binding signal of 0.0433 E-score.

Turning to ATGTGCCA, the binding signal is -0.0913 E-score.

ACTCAAGC came in with a binding signal of 0.0263 E-score.

In turn, AATAGTGA gave a binding signal of 0.124 E-score.

As to CTCGCTTA, the binding signal was -0.145 E-score.

For ATAATCTC, the binding signal came out at 0.161 E-score.

The sequence CAGCCACA came in with a binding signal of -0.408 E-score.

AAAAACCA came in with a binding signal of 0.119 E-score.

ATAGCGGC: the binding signal came out at 0.0528 E-score.

In the case of CACTGAGC, the binding signal is -0.138 E-score.

Take CTCGATGA: the binding signal was found to be 0.122 E-score.

For the sequence AAAAATCG, the binding signal was -0.0125 E-score.

Consider CACACATA, for which the binding signal turned out to be 0.0926 E-score.

The sequence CTACTCTA displayed a binding signal of 0.168 E-score.

For the sequence CCTGTGCA, the binding signal came out at 0.0836 E-score.

For the sequence CAACGTCC, the binding signal was -0.22 E-score.

AGGCACCA showed a binding signal of -0.195 E-score.

Sequence ACGACCCG returned a binding signal of -0.313 E-score.

Regarding AGCTTCGA, the binding signal is -0.0406 E-score.

Consider AGGCCCTG, for which the binding signal was -0.211 E-score.

Consider AATCTAGT, for which the binding signal turned out to be 0.377 E-score.

Sequence CGTAAAAC displayed a binding signal of 0.00692 E-score.

ACGGTCTA returned a binding signal of 0.0646 E-score.

Sequence GCACGGGA gave a binding signal of -0.256 E-score.

For the sequence ATCTACAC, the binding signal stood at 0.348 E-score.

In turn, CGGAAACA displayed a binding signal of 0.0802 E-score.

Take CTAAGATA: the binding signal is 0.111 E-score.

GTCACCAA came in with a binding signal of -0.00522 E-score.

For AATACCAC, the binding signal worked out at 0.242 E-score.

Sequence ATGCTAGG gave a binding signal of -0.0212 E-score.

Sequence CAAGCTGA displayed a binding signal of -0.187 E-score.
